Laboratory results taken from PubChem BioAssay (NCATS).
Several values for one entry are separate records, joined by “and”; a condition that tells them apart may be missing. Equal entries are not always repeated. This list was built around the results that the source calls inconclusive (neither active nor inactive); the mix of calls is not that of the screen. A potency beside an inconclusive call is a rough fit, not a confirmed value. Activity calls are given as the source filed them. Calls follow the shape of the dose curve; as a rule, active = well fitted inhibition curve with a large enough effect; inconclusive = small, poorly fitted or top-dose-only effect; inactive = no such curve, though single readings can be large or run the other way.

Molecular target: Retinaldehyde dehydrogenase 3 (Homo sapiens) (UniProt P47895)
Experiment: qHTS for Inhibitors of the Aldehyde Dehydrogenase Family (ALDH1A3) Primary screen (AID 2061315)
Conditions: ALDH inhibition qHTS; series mostly up to 56 µM
Potency is read from the fitted curve at half-maximal effect; tags tell the direction and shape of the fitted curve.

**Q.** Which Potency does the source give for `CCCS(=O)c1ccc2nc(NC(=O)OC)[nH]c2c1` (configuration not stated) here?
**A.** inconclusive: 35.5 µM [inhibitor, single point]

**Q.** Which Potency does the source give for `O=C(CCCCCCC(=O)Nc1ccc(C2OC(CSc3nc(-c4ccccc4)c(-c4ccccc4)o3)CC(c3ccc(CO)cc3)O2)cc1)NO` (configuration not stated) here?
**A.** inconclusive: 22.4 µM [inhibitor, single point]

**Q.** With `O=C(Nc1cc2cc[nH]c2cn1)c1ccccc1` as the compound, how does the Potency read?
**A.** inconclusive: 20 µM [inhibitor, partial curve]

**Q.** Which Potency does the source give for `COC(=O)c1cc2c(C(F)(F)F)cc(-c3ccccc3)cc2n1O` here?
**A.** inactive

**Q.** Which Potency does the source give for `CCS(=O)(=O)N(Cc1cccnc1)c1cccc(-c2ccc(C#N)cc2)c1` here?
**A.** inconclusive: 12.6 µM [inhibitor, partial curve]

**Q.** With `CN(C)CCN(Cc1ccc(-c2ccc(CNCCc3ccccc3)cc2)cc1)C(=O)CCC1CCCC1` as the compound, how does the Potency read?
**A.** inconclusive: 3.55 µM [inhibitor, full curve, poor fit]

**Q.** With `C=C(C)Cn1c(SCC(=O)c2cccs2)nc2sc3c(c2c1=O)CCCC3` as the compound, how does the Potency read?
**A.** inconclusive: 6.31 µM [inhibitor, single point]

**Q.** For `COc1ncc(-c2ccc3c(Nc4cc(Oc5cc(F)cc(F)c5)cc(C(=O)O)c4)c(S(=O)(=O)NC4CC4)cnc3c2)c(OC)n1`, which Potency is on record?
**A.** inactive

**Q.** Which Potency does the source give for `N#Cc1ccc2[nH]c(O)c(-c3ccc(CN4CCOCC4)cn3)c2c1` here?
**A.** inconclusive: 35.5 µM [inhibitor, single point] and inconclusive: 31.6 µM [inhibitor, single point]

Test system: not listed separately
Experiment: BET inhibitor-based combinations targeting novel dependencies in MECOM-rearranged (r) AML: SET-2 cell line (AID 2202231); also: nearly all actives have a fitted effect of over 35% in size
Conditions: SET-2 AML cells viability, CellTiter-Glo luminescence, 48 h; viability: stronger effect = lower value, concentration not given here
Method in brief: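 A 48 hr incubation preceded viability reading by CellTiter-Glo, with 15 min room-temperature development. Dose series had 11 points; normalization used DMSO and empty wells; AUC was computed and mean-centered per line as Z-AUC.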

**Q.** Which Potency does the source give for `CCCS(=O)c1ccc2nc(NC(=O)OC)[nH]c2c1` (configuration not stated) here?
**A.** inconclusive: 18.6 µM [inhibitor, partial curve]

**Q.** Which Potency does the source give for `COc1cc2c(cc1OC(C)C)[C@H](c1ccc(Cl)cc1)N(c1ccc(N(C)CC3CCC(N4CCN(C)C(=O)C4)CC3)cc1)C(=O)C2` (some centres not stated) here?
**A.** inconclusive: 37.2 µM [inhibitor, single point]

**Q.** Which Potency does the source give for `O=C(Nc1cn[nH]c1-c1nc2ccc(CN3CCOCC3)cc2[nH]1)NC1CC1` here?
**A.** inconclusive: 0.332 µM [inhibitor, full curve]
